The text below walks through data of US20210171593A1 (HANGZHOU SUMGEN BIOTECH, published 2021).

Substitutions are numbered along the chain they refer to.

B1: SS002M91 (Fc fusion)
chain: ELQVIQPDKSVLVAAGETATLRCTATSLLPVGPIQWFRGAGPGRQLIYNQKDGHFPRVTTASDLTKRNNMDFSINIGNITPADAGTYYCVKFRKGSPDDIEFKSGAGTELSVRAKPSL[sequence of human IgG1 Fc not given]
notes: also called M91-human IgG1 Fc fusion protein
B2: SS002 (Fc fusion)
chain: B1 chain with L29I, Q45E, D52E, A61V, N75R, I100V
notes: also called wild type SIRPα truncated domain-human IgG1 Fc fusion protein
B3: SS002M5 (Fc fusion)
chain: B1 chain with L29V, Q45N, Q50S, K51R, D52H, A61V, N75R, I100V
notes: also called M5-human IgG1 Fc fusion protein
B4: SS002M130 (Fc fusion)
chain: ELQVIQPDKSVLVAAGETATLRCTATSLLPIGPIQWFRGAGPGRVLIYNQREGHFPRVTTVSESTRRDNMDFSIRIRNITPADAGTYYCVKFRKGSPDDVEFKSGAGTELSVRAKPSL[sequence of human IgG1 Fc not given]
notes: also called M130-human IgG1 Fc fusion protein
B5: SS002M12 (Fc fusion)
chain: B1 chain with L29F, V31I, Q45E, K51R, D52K, A61V, N75R
notes: also called M12-human IgG1 Fc fusion protein
B6: SS002M84 (Fc fusion)
chain: B4 chain with L29F, I31V, V45E, R51K, E63H, D68N, R77H, V100S
notes: also called M84-human IgG1 Fc fusion protein
B7: SS002M82 (Fc fusion)
chain: B4 chain with L29F, I31V, V45E, R51K, E63H, R66K, D68N, R77H, V100S
notes: also called M82-human IgG1 Fc fusion protein
B8: SS002M102 (Fc fusion)
chain: B4 chain with V45E, Q50G, R51K, E52G, E63R, R66K, R77G, V100I
notes: also called M102-human IgG1 Fc fusion protein
B9: SS002M91G4 (Fc fusion)
chain: ELQVIQPDKSVLVAAGETATLRCTATSLLPVGPIQWFRGAGPGRQLIYNQKDGHFPRVTTASDLTKRNNMDFSINIGNITPADAGTYYCVKFRKGSPDDIEFKSGAGTELSVRAKPS[sequence of human IgG4 Fc with S228P (EU numbers) not given]
notes: also called M91-human IgG4 Fc fusion protein

The first experiment deals with T1, human CD47 (Beijing Yiqiao Shenzhou Biotechnology Co., Ltd.) (human, UniProt Q08722 in part).
T1 construct: also called human CD47 molecules
In words: ELISA, coated human CD47, anti-human IgG HRP.
B1: the “EC50 (read off the curve)” value is approximately 0.06 µg/mL.

A further experiment has as its target CD47 molecule (Biacore, Example 3) (Homo sapiens (Human), UniProt Q08722 in part, limits assumed). In words: Biacore (SPR).
Regarding B2, the koff came to 0.0063 s⁻¹ and the kon was determined as 1.32e+06 M⁻¹ s⁻¹.

With B3, binding was characterised by a dissociation constant (Kd) of 5 nM, the koff was 0.00862 s⁻¹ and the association rate constant (kon) worked out at 1.72e+06 M⁻¹ s⁻¹.

In turn, B4 yielded a Kd of 6.2 nM, a koff of 0.00882 s⁻¹ and an on-rate constant (kon) of 1.43e+06 M⁻¹ s⁻¹.

Turning to B5, the Kd came out at 4.62 nM, the off-rate constant (koff) was 0.00861 s⁻¹ and the kon worked out at 1.87e+06 M⁻¹ s⁻¹.

Molecule B6 returned a dissociation constant Kd of 1.3 nM, a koff of 0.00143 s⁻¹ and a kon of 1.1e+06 M⁻¹ s⁻¹.

The molecule B7 displayed a Kd of 1.65 nM, an off-rate (koff) of 0.00211 s⁻¹ and a kon of 1.29e+06 M⁻¹ s⁻¹.

B8 gave a Kd of 1.6 nM, an off-rate constant (koff) of 0.0029 s⁻¹ and an association rate constant (kon) of 1.79e+06 M⁻¹ s⁻¹.

As to B1, the Kd was 0.18 nM, the off-rate (koff) stood at 0.000272 s⁻¹ and the kon worked out at 1.56e+06 M⁻¹ s⁻¹.

Another experiment deals with T2, mouse CD47 (Beijing Yiqiao Shenzhou Biotechnology Co., Ltd.) (mouse, UniProt Q61735 19-140, limits assumed).
T2 construct: also called mouse CD47 molecules
T2 sequence (looked up): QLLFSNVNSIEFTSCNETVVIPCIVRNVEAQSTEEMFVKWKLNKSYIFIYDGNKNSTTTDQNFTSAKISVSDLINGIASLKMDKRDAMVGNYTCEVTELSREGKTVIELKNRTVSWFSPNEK
Briefly: ELISA, coated mouse CD47, anti-human IgG HRP. On the technique in general: In an ELISA, binding on a coated surface is turned into a signal by an enzyme label.
Consider B2, for which the binding result was “no binding (tested: about 15 µg/ml)”.

Another experiment addresses T3, CD47 on the surface of tumor cells (Raji cells, Jurkat cells, A549 cells) (human, UniProt Q08722 in part).
T3 construct: Endogenous CD47 of the cell lines; also called surface CD47; CD47 molecules on the surface of tumor cells
Briefly: flow cytometry on Raji cells. (Flow cytometry measures light scatter and fluorescence of single cells or particles in a stream.)
Consider B2, for which the concentration for a half-maximal effect (EC50) was found to be 1.14 µg/mL.

The molecule B1 came in with an EC50 of 0.197 µg/mL.

A further experiment has as its target T4, BSA (BOVOGEN) (bovine, UniProt P02769).
T4 construct: Control coat in the specificity ELISA
T4 sequence (P02769 25-607 limits assumed): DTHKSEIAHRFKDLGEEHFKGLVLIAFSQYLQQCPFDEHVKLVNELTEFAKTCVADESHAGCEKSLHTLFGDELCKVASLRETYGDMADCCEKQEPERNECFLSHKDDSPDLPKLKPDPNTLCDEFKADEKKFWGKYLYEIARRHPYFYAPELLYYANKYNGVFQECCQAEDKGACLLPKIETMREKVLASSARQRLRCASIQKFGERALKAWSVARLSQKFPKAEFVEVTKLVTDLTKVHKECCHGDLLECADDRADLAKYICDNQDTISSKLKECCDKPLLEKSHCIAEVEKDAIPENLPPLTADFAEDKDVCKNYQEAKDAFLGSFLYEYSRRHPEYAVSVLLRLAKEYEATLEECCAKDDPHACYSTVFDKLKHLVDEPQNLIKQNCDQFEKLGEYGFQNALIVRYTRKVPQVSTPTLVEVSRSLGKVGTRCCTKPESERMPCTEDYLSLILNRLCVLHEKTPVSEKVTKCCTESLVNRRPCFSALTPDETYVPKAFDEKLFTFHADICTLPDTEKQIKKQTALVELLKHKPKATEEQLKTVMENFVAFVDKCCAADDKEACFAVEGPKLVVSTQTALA
Briefly: ELISA, coated BSA, anti-human IgG HRP.
Take B2: the binding result is given as “no binding”.

For B1, the binding result is “no binding”.

The next experiment concerns the target T3, CD47 on the surface of tumor cells …. In words: flow cytometry on Jurkat cells.
With B2, the half-maximal effective concentration (EC50) is 4.53 µg/mL.

As to B1, a half-maximal response (EC50) required 0.796 µg/mL.

The next experiment concerns the target CD47-Fc protein (Cat #12283-H02H, Sino Biological) (Homo sapiens (Human), UniProt Q08722 in part). Briefly: cell-based or functional assay.
Consider B9, for which the “blocking of the apoptosis of Jurkat-CSR cells induced by CD47-Fc (CCK-8, OD450), IC50” value was ~0.01 fold of the IC50 of TTI-621.

The target of a further experiment is T1, human CD47 (Beijing Yiqiao Shenzhou …). In words: ELISA, coated human CD47, anti-human IgG HRP. This is another data set of the same source.
With B2, the concentration for a half-maximal effect (EC50 (read off the curve)) was approximately 0.06 µg/mL.

For another experiment, the target named is T3, CD47 on the surface of tumor cells …. In words: flow cytometry on A549 cells.
In turn, B2 yielded a concentration giving a half-maximal response (EC50) of 1.66 µg/mL.

The molecule B1 showed an EC50 of 0.322 µg/mL.

Usually EC50 (read off the curve) stands for the concentration giving half of the maximal effect. A high value points to lower potency in that assay. One may read the koff as a measure of how fast the partners let go of each other. Read a high koff as a short-lived complex. By kon is commonly meant the second-order rate constant of association. The low end stands for slower complex formation, the high end for faster complex formation. The term Kd denotes the free concentration of one partner at which half of the binding sites on the other are occupied at equilibrium, for simple one-to-one binding. Low readings indicate higher affinity, high ones lower affinity. Usually EC50 stands for the concentration that produces a half-maximal response.
